Experimental data reported in the supplement of paper PMC12632987.
In all, about 4,500 sequences were measured (“median log2 fold change of GCK-ALFA target abundance (FLAG IP / Myc IP barcode read proportion)”: median about 0.078, lowest 2% from about -0.6 on). This is one part of the list.

B1: GBRAP_52_5877 (protein)
chain: MLEEAVKLLEEAVKAKKEGKEKELKEILKKIVEEFSEETILAAVKKLAEKVLTKSLEEAEAFYETVELLSDILLEAGKSEEIASLMEAIAGATLYTVEQK
B2: GBRAP_26_5434 (protein)
chain: IEETEREAEEKMKKAAAELGDPNKAAAALAEALTLLEEAVEEIEEKNLTKEEAEKLVKEKAKEFYEFLKELGVDEEKAEKLTKVFEEELKKVAEALLKER
B3: GBRAP_128_3533 (protein)
chain: STEEVIEYAKEVVEKIKNSDVETAYKITKEFIEKLKTWSLEEVEAAVEVLEENLPLLSAEKLEAVADAIEENIHTLSPEKQRLLNGVRVEALNLAEELEE
B4: GBRAP_166_4953 (protein)
chain: SMEEIIEEARRRLEELAEEMKGLDEEGRQEKLAEMAEVLAEAREAGASEEELLELAELALKLVKEAGGDVTAFLGAILMFVDLSEEEIEKLEEIRDKVLA
B5: GBRAP_83_6877 (protein)
chain: AEEITVVGNDDNIEEAFEAAIDLHLEDGYKVSIELIISRESLPLLKEQVKKMFEKGVEAEIEIYARGATKEEAEKLKEELEAIAKEAGVEAKVEVTVIEE
B6: GBRAP_35_5520 (protein)
chain: SSEEEEVEMLVATIEDLTLAVPDMDVETTVQIANQLIEHAERLAEDVKDNVEALERLRRALEALREALEKHYGDDPLAQETIARIRELIARIDELIKEAK
B7: GBRAP_184_5255 (protein)
chain: MTLEKEIKVKNVEELKEKLEEINKEALEKKADVLILLDVEKLTKEMADALFESIKEMKAKGYTGKVTIGITADLTEEMIDYVLEKADEAGVNVTLAIPEE
B8: GBRAP_57_6475 (protein)
chain: MERLKAVEEAAERALALIDARAPREEILAAVRELAELLSEETLRDVLLIADPEAPEDLSKEEAIARLVALAAAYLDAGDYDGLRRLVELMLGTAEMDFEE
B9: GBRAP_166_4988 (protein)
chain: MVEELIEELKKKTEEVIKEIEEADDEEVFELLVDFGEFLEELREKGVPLEEILEAAVKVAVAAAKKIGKPNLAVGIIANEAGLDEEELEKLEEAVKKELA
B10: GBRAP_128_3429 (protein)
chain: SMEEIVEEVRKLLEEMLTADKETQRKLAEEIAELMLESDLETAEAIAEVVEEMLPKFTAEQLEILADVGREMLPKFTPEKQEILAGVIVDALNQAEELEE
B11: GBRAP_160_4252 (protein)
chain: EEEIEKIEEEIEEEAEVLLEALKESDKSDWPAFARAMAGDIVQIVIENPNASEETIEKVDEAAEELAERLIANKDASPEEIEEILEEGVEEIIEIVKEEI
B12: GBRAP_125_2994 (protein)
chain: SEEEVLENLRLVLRALGFDDEDVEEAVRLAREHGIRGTLYAALLALGYEELADLVEKLSEEETREALRRVAEELKKNPDLTPEEVKALLLEVLEKILAER
B13: GBRAP_106_2557 (protein)
chain: SRAARAEALLAEARAEAEAELAALDAWLEKHKSELSPEEIEAIKTYAGKAAVGRLLRRMVEAGLISPETARAIEREVLARAGLTPEELLALAEELVRAAV
B14: GBRAP_160_3988 (protein)
chain: EEEKKKLLKEIEEIFKETYELASGEDPENRLTVVRVHMGEILLLAEESGILSEESIEKIDEILDELVEKVAANPDMTDEELKALLEEALKKIKEIIEAEK
B15: GBRAP_184_5266 (protein)
chain: KVKEYEIEASNPEEIKEKLEKIAEEVKNTKADLIILAKIENPTPEKIKTLMEKLGEIKKAGYASSITVGIESELSEEVIDLAYELADKYGIKVTVALSEE
B16: GBRAP_26_5490 (protein)
chain: FEEEILKELREEIRKILADEDPTLRAAVIAAAEDLLLEAGEEIEKNKNDEKKIEEAKKEALEEMEKDLADFGLSEEKRAAVVEALKKALEKLEKEVKKKS
B17: GBRAP_160_4353 (protein)
chain: SETVERLIEKIREVTEEVIEAADELSVEEVKIIAAGEFGAVFMEAAEDERISDEMEDVILEGRDKVLEFLEENENASVEEIKKGIREITEETIEKLKEIA
B18: GBRAP_52_5910 (protein)
chain: MRERLRKLAEEMLKLVKAGKLEEARELARKLARELSDEELELFIEEVEKLVLEAPKEELPYFWKLAEIVAEELEREGRDEVLADLLLARTAAAIYKVEQK
B19: GBRAP_160_4823 (protein)
chain: SETVERWKKLIDERAAETIALVKGQTAEERAAIAAVEFGQLILELSEDPNFTDELEDEVAAIGDALVAEIAANPDLTDEELTALIEKAAAEIKAAIEKAF

target: GABARAP, O95166; experiment: median log2 fold change of GCK-ALFA target abundance (FLAG IP / Myc IP barcode read proportion) (log2 ratio); each designed protein is fused to an ALFA-tag nanobody in HEK293 cells to bring the named protein to FLAG-tagged glucokinase (GCK); Myc marks an untargeted standard; higher = target protein stabilised (more abundant); details: target protein: 3xFLAG-MCP-GCK-ALFA reporter; HEK293 landing pad (RPLP)
In short: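 Binders fused to an ALFA nanobody were recombined as a library into HEK293 landing-pad cells, which were induced with 2 μg mL^−1 doxycycline and then transfected to express a FLAG-tagged target and a Myc-tagged standard. After 48 h, circular RNA barcodes recovered by anti-FLAG and anti-Myc immunoprecipitation of lysates were reverse transcribed, amplified and sequenced. Each binder's target abundance is the median log2 ratio of FLAG to Myc barcode read proportions, from barcodes present at ≥10^−7 in both replicates, binders carrying ≥3 barcodes per replicate, a 10^−6 pseudocount and pooled replicates.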

Chain of GABARAP, O95166 (O95166 whole entry, the tested form may be a part): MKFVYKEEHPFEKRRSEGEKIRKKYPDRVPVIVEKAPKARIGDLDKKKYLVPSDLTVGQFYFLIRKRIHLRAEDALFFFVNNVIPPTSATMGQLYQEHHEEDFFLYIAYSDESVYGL

Binder	median log2 fold change
B1	0.168
B2	0.223
B3	0.15
B4	0.08
B5	0.0394
B6	0.206
B7	-0.000826
B8	0.257
B9	-0.0091
B10	0.259
B11	0.234
B12	0.0827
B13	-0.49
B14	-0.199
B15	0.225
B16	0.347
B17	0.014
B18	0.121
B19	0.0772
